Measurements taken from PubChem BioAssay AID463173 (ICCB-Longwood Screening Facility, Harvard Medical School, 2010).
Among all 52,000 compounds or so, about 4,300 (8.3%) were called active. No stated cut-off is given here; in the data, active means survival mostly below about 52% (no sharp cut-off); inactive means mostly above about 56%. The list shows a part of the results.

What follows are compounds tested on DeltatarO mutant (assay: growth inhibition of S. aureus wild type versus tarO mutant, primary screen, teichoic acid synthesis inhibitors, RN4220, OD600 (AID 463173)). Details: OD600, 18 h, stronger effect = lower value; concentration not given here unless noted.

SMILES | survival
c1ccc2c(CCNC3CCNCC3)c[nH]c2c1 | inactive: 75%
CCCC12CN3CC(C)(CN(C1)C3c1ccccn1)C2=O (centres undefined) | inactive: 84%
Cc1cc(N)n(C2CCN(C)CC2)n1 | inactive: 94%
COc1ccccc1NC(=O)N(Cc1ccc2c(c1)OCO2)C1CCN(Cc2ccccc2)CC1 | inactive: 88%
Cc1c(Cl)cccc1NC(=O)CN1C(=O)C(C)N=C(c2ccccc2)c2ccccc21 (centres undefined) | inactive: 71%
COc1cc(C(c2c(O)c3ccccc3oc2=O)c2c(C)n(C)n(-c3ccccc3)c2=O)ccc1OCC(=O)O (centres undefined) | inactive: 82%
N#CC(C#N)=Cc1cc(Br)cs1 | inactive: 95%
O=C(Nc1ccc(Cl)cc1C(=O)c1ccccc1)c1ccccc1Br | active: 24%
Nc1c(C(=O)Nc2ccc(Br)cc2F)sc2nc3c(cc12)N1CCC3CC1 | inactive: 132%
O=C(CN1CCCC1=O)NCCc1ccccc1 | inactive: 82%
Nc1c(C(=O)Nc2ccc(Cl)cc2)sc2nc3c(cc12)N1CCC3CC1 | inactive: 55%
Cn1cc(/C=C/c2nc3ccccc3c(=O)n2-c2ccccc2)c2ccccc21 | inactive: 77%
O=C(Nc1ccc2c(c1)OCO2)c1cccn(Cc2cccc(F)c2)c1=O | inactive: 84%
O=C(c1ccc2ccccc2c1)C12CN3CN(CN(C3)C1)C2 | inactive: 101%
COc1cc(C(c2c(O)c3ccccc3oc2=O)c2c(C)n(C)n(-c3ccccc3)c2=O)ccc1O (centres undefined) | inactive: 53%
CN1CCN(c2oc(-c3ccc(COc4ccccc4)o3)nc2C#N)CC1 | active: 41%
Cc1nnc(NC(=O)c2cccn(Cc3cccc(Cl)c3)c2=O)s1 | inactive: 78%
O=c1c2ccccc2nc(/C=C/c2ccccc2)n1-c1ccccc1F | inactive: 69%
COc1ccc(CN2C(=O)CC(=O)NC2=S)cc1 | inactive: 80%
Cc1cccc(CSc2nc3c(cc2C#N)CN(C)CC3)c1 | inactive: 101%

SMILES | survival
COc1cccc(/C=C/c2nc3ccccc3c(=O)n2-c2ccc(Cl)cc2)c1OC | inactive: 88%
c1cc(C2CCNCC2)ccn1 | inactive: 86%
N#CC(C#N)=Cc1ccc(N2CCCC2)cc1 | inactive: 67%
CCCC12CN3CC(CCC)(CN(C1)C3c1ccccn1)C2=O (centres undefined) | inactive: 84%
COc1ccc(C)cc1NC(=O)c1cccn(Cc2cccc([N+](=O)[O-])c2)c1=O | inactive: 86%
C=CCN1C(=O)CN=C(c2cccs2)c2c1sc1c2CCC1 | inactive: 92%
Cc1ccc(-n2c(/C=C/c3cccs3)nc3ccccc3c2=O)cc1C | inactive: 80%
CN1CCN(C2CC3(C)C(CCC4C3CCC3(C)C(O)C(N5CCN(C)CC5)CC43)CC2O)CC1 (centres undefined) | inactive: 76%
CCOc1ccc2nc(NC(=O)c3cccn(Cc4ccccc4)c3=O)sc2c1 | inactive: 94%
CN1CCc2nc3sc4c(=O)[nH]c(=O)[nH]c4c3cc2C1 | inactive: 79%
CSc1ccc(CN2CCN(C(=O)COc3ccc(C)cc3)CC2)cc1 | inactive: 101%
O=C(Nc1ccc(Cl)cc1C(=O)c1ccccc1)c1cc(Cl)cc(Cl)c1 | inactive: 150%
COc1ccc(OC)c(NC(=O)Cn2cc(C(=O)c3ccccc3)c3ccccc32)c1 | inactive: 59%
COc1ccc(-c2nc(CN3C(=O)CN=C(c4ccccc4)c4cc(Cl)ccc43)c(C)o2)cc1 | inactive: 68%
CCOc1ccc2nc(NC(=O)c3cccn(Cc4ccc(Cl)cc4)c3=O)sc2c1 | inactive: 75%
COc1ccc(OC)c(/C=C2\C(=O)C3CCN2CC3)c1 | inactive: 74%
CN1CCCC1c1ccc(N)nc1 (centres undefined) | inactive: 67%
CCc1ccccc1NC(=O)c1cccn(Cc2ccccc2F)c1=O | active: 47%
O=C(Nc1ccc2c(c1)OCCO2)c1cccn(Cc2cccc(F)c2)c1=O | inactive: 84%
